Reference: paper PMC12136788
The list shows a part of the results.

B1: chr10:101781316:101781432:-|3pUTR|ENSG00000107833|unk|total|mutant (ssRNA)
RNA: GGGAGUUCUACAGUCCGACGAUCCCCACCUGCCUGUGAGAAUUGGAGGUCCGUGCCUGAAGCUCAGAGCUACACAUUUUUAACCGUUUUUACAUUUUUGGAUAAAGGUUGAAAUAAAGUGGUGUGGAGUUUUUGCAGCUCUUGCAACAGAGGAUUGAGCAUCA
B2: chr2:190436306:190436418:+|CDS|ENSG00000151690|unk|total|mutant (ssRNA)
RNA: GGGAGUUCUACAGUCCGACGAUCCCUUUUGCCUGUGUAUUACAAACAGCUGGGAAUGUCUCCAAGCCAGAGUGGACUACCCGCCGGUAUUCGUUACUUCAUUGAAUUCUGCAGUGCCCCCUUUUGGGGUGCCGUUGCAGACCGCAACAGAGGAUUGAGCAUCA
B3: chr8:100287602:100287712:-|CDS|ENSG00000034677|unk|FALSE|unique (ssRNA)
RNA: GGGAGUUCUACAGUCCGACGAUCUGUGUGGAUUGCUUACGACAAUAUUUAAGGAUAGAAAUCUCUGAAAGCAGAGUUAAUAUUAGUUGCCCAGAAUGUACUGAACGGUUUAAUCCCCAUGAUAUUCGCUUGAUAUUAAGUGAUCAACAGAGGAUUGAGCAUCA
B4: ENSG00000107863:be:win_1101|CDS|ENSG00000107863|bound_else_gene|NA|bound_elsewhere_windowed (ssRNA)
RNA: GGGAGUUCUACAGUCCGACGAUCGGCUCCCUCUGUAUCUGUUAAUCACUAUUCGCCAAAUUCCCAUCAGCACAUAGACUGGAAAAACUAUAAAACUUACAAAGAGUAUAUUGAUAACAGACGAUUGCACAUAGGUUGUCGGACCAACAGAGGAUUGAGCAUCA
B5: ENSG00000165434:stop:overlap|stop_codon|ENSG00000165434|stop_codon|NA|stop_codon (ssRNA)
RNA: GGGAGUUCUACAGUCCGACGAUCAUGCUCUGAUAGAGAAUUUUCUUCAGCCUAGUAAGAAUGGACUGAUCUGGCGUUCUGUUUAGGGGUACACCAAUAUGUCAUGACACUGUGUGGGCAUAUGGAACAGAGCAACCGAGAACUCAACAGAGGAUUGAGCAUCA
B6: chr3:48693060:48693174:-|CDS|ENSG00000068745|unk|FALSE|unique (ssRNA)
RNA: GGGAGUUCUACAGUCCGACGAUCCCUUCCAGGUGUGGUAUCUGUGCGCUUUGAAGAAGAUGAAGACAGGAACUUGUGUCUAAUAGCAUAUCCAUUGAAAGGGGACCAUGGAAUUGUGGACAUUGUAGAUAAUUCAGACUGUGACAACAGAGGAUUGAGCAUCA
B7: ENSG00000198589:be:win_1651|CDS|ENSG00000198589|bound_else_gene|NA|bound_elsewhere_windowed (ssRNA)
RNA: GGGAGUUCUACAGUCCGACGAUCUUUUCAAAAUAUCUGAGUAAUCUGCAGAAUGGGAUGCCCCUGCUCAAGCAAUUGUGUGAUCACGUUCUUCUUAAUCCUGCCAUAUGGAUUCAUACCCCAGCCAAGGUUCAACUGAUGCUCCAACAGAGGAUUGAGCAUCA
B8: chr9:35091239:35092767:-|three_prime_utr|ENSG00000165282|control|control|control (ssRNA)
RNA: GGGAGUUCUACAGUCCGACGAUCAGGCUUUCCAUUCUGCCCUCUACUCCUGACACCUGUGGCCUGGGGCCUGGUUGGGGCCAUAGCGUAUGCUGGACUCCUGGGAACUAUUGAGCUGAAGCUAGAUCUAGUGCUUCUAGGGGCCAACAGAGGAUUGAGCAUCA
B9: ENSG00000146216:stop:overlap|stop_codon|ENSG00000146216|stop_codon|NA|stop_codon (ssRNA)
RNA: GGGAGUUCUACAGUCCGACGAUCUGCUCCGCAUCUCGCGGUCCCAGCUGCAGCAGGUGUGGGCCCGGUUCACCCACAAGACCUAGGCUGGGCCCCCCCCCUCCUGGAGGGGGCAGGUGGGGGGGGGUGGGGAGCAGGCAGAGGCAACAGAGGAUUGAGCAUCA
B10: chr10:59791032:59791133:-|3pUTR|ENSG00000108091|msi1|total|mutant (ssRNA)
RNA: GGGAGUUCUACAGUCCGACGAUCUAAUCAUAAUACAGUUCUCAGAUGCAGGGAAGAAGUUUGGCAUUUAAUCAUUGAGGCUUCCGGUUUUUGAUGUGAUCAGACUGGGCCAUGUCAAACCCGGAAUUUUCACCAACAGUUCACCAACAGAGGAUUGAGCAUCA
B11: chr8:100258838:100258944:-|CDS|ENSG00000034677|unk|total|mutant (ssRNA)
RNA: GGGAGUUCUACAGUCCGACGAUCAGUGAAUUUGAGGCUCCAUCCCUCAGUGACAGUAUGCCUUCUGCCGCAGAUUCUCACUCCCGUCAUUUUUCUGAAUUCCGUUGUUCUGACCCCGAAAGCAUGAAAACUUCUUGCCGUCAUCAACAGAGGAUUGAGCAUCA
B12: ENSG00000117298:stop:overlap|stop_codon|ENSG00000117298|stop_codon|NA|stop_codon (ssRNA)
RNA: GGGAGUUCUACAGUCCGACGAUCAGGAGACAGGAACCCGAGAAGUAGCUGAAGCAGAAGCCAGCCGCAGUCCCCUUGCCACAUAGAGGCGGGCUUCUCCCAGCCAUGGUGUCCCCUCUGCCUCCCCUCCCCCGACCCUCCUGCCAACAGAGGAUUGAGCAUCA
B13: ENSG00000136271:stop:overlap|stop_codon|ENSG00000136271|stop_codon|NA|stop_codon (ssRNA)
RNA: GGGAGUUCUACAGUCCGACGAUCCUGUGCUCAACUUUGAUCUUCCCCCAACCCCUGAGGCCUACAUCCAUCGAGCUGGCAGGUAGUAGUGUGACGGCCCAGGCAUCUGCAUGGACAGCACGCGCUAACAACCCAGGCAUAGUCCAACAGAGGAUUGAGCAUCA
B14: chr20:7982266:7982367:-|CDS|ENSG00000125827|msi1|FALSE|bound_elsewhere (ssRNA)
RNA: GGGAGUUCUACAGUCCGACGAUCGAGAAGUGAGGCCAAUGAUCAGGGGCCCCCAGGAGAGGACGGUGUGACCCGGGAGGAAGUAGAGCCUGAGGAGGCUGAAGAAGGCAUCUCUGAGCAACCCUGCCCAGCUGACACAGAGGUCAACAGAGGAUUGAGCAUCA
B15: chr5:138873012:138874556:-|CDS|ENSG00000146006|control|control|control (ssRNA)
RNA: GGGAGUUCUACAGUCCGACGAUCUUUAUUAUUUUUAUAGUGUUCAUCUCCAGGAAGUGCUGCCCUCCCACUUUAAGAAGAAUUAGGCAGUGCUCAAUGGUUCAGAACCACAGGCAGCUCCGAUCCCAAACACGACUCCAUAUGCAACAGAGGAUUGAGCAUCA
B16: chr17:7460970:7461071:-|3pUTR|ENSG00000174282|msi1|FALSE|unique (ssRNA)
RNA: GGGAGUUCUACAGUCCGACGAUCGGAUGGAGAAGGGAAUCUACUUUCUCCCUGUUUUUUUUUCCUGAUGGUUUCUCCCAGACUAGACCAAAUAGCCAGAAAAAUGAUAGGGGUCGGAUGGGUGGGUAAGCCCAGGAUUUGCACCAACAGAGGAUUGAGCAUCA
B17: chr12:49127802:49127903:-|3pUTR|ENSG00000123416|msi1_unk|total|mutant (ssRNA)
RNA: GGGAGUUCUACAGUCCGACGAUCAUGUCAUGCUCCCAGAAUUUCAGCUUCAGCUUAACUGACAGACGUUAAAGCUUUCUGGUCCGAUUGUUUUCACUUGGUGAUCAUGUCUUUUCCAUGUGUACCUGUAAUAUUUUUCCAUCACAACAGAGGAUUGAGCAUCA
B18: chr2:108783740:108783841:+|CDS_3pUTR|ENSG00000153201|msi1_unk|FALSE|overlapping (ssRNA)
RNA: GGGAGUUCUACAGUCCGACGAUCCAAUAAUUCUCAAUUUGUUAUAACACUGAAGAAAGCAGAACAUUUGGACUUUAAGCAUGUAGUAUUUGGGUUUGUUAAGGAUGGCAUGGAUACUGUGAAAAAGAUUGAAUCAUUUGGUUCCAACAGAGGAUUGAGCAUCA
B19: chr7:47276374:47276475:-|3pUTR|ENSG00000136205|msi1|FALSE|unique (ssRNA)
RNA: GGGAGUUCUACAGUCCGACGAUCCUGGGGUUUGGGAAUGUGCUUUGUGAACUCUGCUUUAAAGUGAGGGGCCGAGGAAAACUUAGAAACAGGCAGAGUUGGAAGCAGCCAAAUCACAGUGGGUGUUGUGUGUGUGUGCGUGUGCAACAGAGGAUUGAGCAUCA
B20: chr17:21001410:21001511:-|3pUTR|ENSG00000124422|msi1_unk|total|mutant (ssRNA)
RNA: GGGAGUUCUACAGUCCGACGAUCCCGUACAACUUUCCGACACAGAAAUCUGAAUGACAUAUAUUGUUCUGUGUCAAGAAACUCCGAUUUUUUUUUUAACUAUUUAAAAACGUGAAACCUAUUCUCCGCUCACAGGCCAUGGAGCAACAGAGGAUUGAGCAUCA
B21: ENSG00000198589:be:win_4351|CDS|ENSG00000198589|bound_else_gene|NA|bound_elsewhere_windowed (ssRNA)
RNA: GGGAGUUCUACAGUCCGACGAUCGCAGUAAGGAAUUGCUUGGAGUGUCAACAGCAUUCACAACUGAAAACUAGGGGAGAUAAAGCCUUGAAACCAAUGCAUAGCCUUAUUCCUUUAGGGAAAUCUGCAGCGAAGAGCCCAGUGCAACAGAGGAUUGAGCAUCA
B22: chr20:4700211:4700532:+|3pUTR|ENSG00000171867|msi1|total|mutant (ssRNA)
RNA: GGGAGUUCUACAGUCCGACGAUCUUGCCUGGAUACCUCUGGCUCCUUCAGCAGCCCGAGCUCAGUAUACUAAUGCCCUAUCUCCGCCGAGAUUUCACCGCUAUUCCGAGAUAUUUUCCAUUUUAAGAAAACCCGACAACAUUUCAACAGAGGAUUGAGCAUCA

Target: MSI1 full-length (mouse, UniProt Q61474 1-362)
Chain of UniProt Q61474 (Q61474 whole entry): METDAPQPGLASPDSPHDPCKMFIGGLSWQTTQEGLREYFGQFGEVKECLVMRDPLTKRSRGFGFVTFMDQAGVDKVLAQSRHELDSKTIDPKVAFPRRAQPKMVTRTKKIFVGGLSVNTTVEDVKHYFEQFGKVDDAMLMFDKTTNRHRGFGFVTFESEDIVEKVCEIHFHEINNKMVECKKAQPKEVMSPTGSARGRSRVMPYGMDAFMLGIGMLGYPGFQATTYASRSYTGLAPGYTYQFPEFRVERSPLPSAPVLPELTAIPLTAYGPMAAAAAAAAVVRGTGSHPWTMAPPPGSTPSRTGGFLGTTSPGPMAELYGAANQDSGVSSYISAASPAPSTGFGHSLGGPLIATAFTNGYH
Assay: nsRBNS (natural sequence RNA bind-n-seq); RBNS binding buffer (assumed for nsRBNS): 25 mM Tris pH 7.5, 150 mM KCl, 3 mM MgCl2, 0.01% Triton X-100, 500 ug/ml BSA, 20 U/ml SUPERase-In, 4 C; UNK is unkempt and MSI1 is Musashi-1; names of the RNAs are library labels; protein concentration not given here; high values mean tight binding

Binder | binding signal [enrichment R]
B1 | 0.27
B2 | 0.266
B3 | 22.4
B4 | 0.851
B5 | 0.608
B6 | 0.68
B7 | 0.323
B8 | 1.5
B9 | 0.353
B10 | 0.459
B11 | 0.396
B12 | 0.606
B13 | 0.299
B14 | 0.527
B15 | 1.88
B16 | 2.29
B17 | 0.704
B18 | 0.864
B19 | 0.889
B20 | 0.44
B21 | 0.59
B22 | 0.588
